{
  "source": "the supplement of paper PMC12632987",
  "binders": {"B1": {"name": "GBRAP_160_4564 (protein)", "chain": "MEKAKKLVEDLRKDVEKTLEETKDDSIEELRVALSGTIGSHAMEMAEDPRFSDEMVDVLLQARDEIDAYLKENKDASYEEIKAAVMAIVDAAGEKILALA"}, "B2": {"name": "GBRAP_80_6817 (protein)", "chain": "MEEEIEKYLEEIREIDPELAEIVEEAVKIAKELGVPLELIARYVKAIAELAKLDLEKAREIAERLLKELKKYKEEGDKEGAYAEIVDATSEALLEVEKLE"}, "B3": {"name": "GBRAP_83_6970 (protein)", "chain": "MEKVDVVTTPDHVEEAAEAARDLAEEEGYEVTVILVGSPEEVLKSAEIVAEKLKDIKNVSIRAAVRGVRKEEAEKTKKKLEEIGKKYGLKVEFDAELIEE"}, "B4": {"name": "GBRAP_160_4673 (protein)", "chain": "MEEVEKLKKEIEKILKEALEFMRGESLEERVAVAESMKGDIVLLLEESPVVSEEAIEKADKIGDELVAWIRAHPDITDEELEKQLEKALKEIFKVLDELT"}, "B5": {"name": "GBRAP_14_3822 (protein)", "chain": "MEEIEKAIEEGYEELAEELSEIAPEKAEEIRELVERQREEVLARIKETGDPVAAVREGREKLLEELDALLADEPPETRATALAEADIETAELEEEVDELL"}, "B6": {"name": "GBRAP_48_5829 (protein)", "chain": "MVKDLEKLKKLVEETVEEMKELYEEAKEEGLSDEDILRMIRAELGDLALELEEEGYTKAADYLLEPENREATAEKLKALFDAGKYEEAKEYLLKKLLEAE"}, "B7": {"name": "GBRAP_160_4732 (protein)", "chain": "SERIKKFAEEARKIFLEAVEWSKDESKEEAAALFEGAAGEVLMDVMSDPNFTDEQEDKAAEILDELVERLKENWDASVEEKKKIVEEMTERLLEELLKIK"}, "B8": {"name": "GBRAP_184_5177 (protein)", "chain": "MIEEFTIKVKDVEETRAKMEEVKEAVKGKKAELYLIVEAEEFTVEMVEALMEILKEMKEEGYVTKITVHLDGKVSEEVVDVAVKLAKEAGINLVIALDEE"}, "B9": {"name": "GBRAP_52_6128 (protein)", "chain": "MREEAERLVEELLRLVKEGKEEEARKLAREIVETKDDEFLKLIAEELARRAKEASPEEAELIERAAEILAEEIEKAGRDEVLADYVESTIAAALYENEQA"}, "B10": {"name": "GBRAP_128_3298 (protein)", "chain": "SAAALRARYRARVRALKSLTPEELRAATLALIAEAAALGLEAVEILAEVLEELLPEFTVEQLHAIADALAEAAKTATPEERAVLADAENDALLEAEEKEE"}, "B11": {"name": "GBRAP_160_4260 (protein)", "chain": "SEELEELIEDVEEDREEILSLVDEISAEEVRTFAVVELGSHLLEAIELEIVTDEEEEELAEIIDDLEERLTAAENASKEEIKAIITESYDKFIEILKKAK"}, "B12": {"name": "GBRAP_186_5366 (protein)", "chain": "SEEAEKKIEEIIDEAAKEGWLILGVLEVEELTEESLERIKRELEAGAEFSAEFGYKVAVIIKTTVSEEEFEKLKKKVEEEKKRLEKETGADIKVTIIHEE"}, "B13": {"name": "GBRAP_160_4167 (protein)", "chain": "MEKLEKAKKEIKEIFKEAIEEMKGQTAENRANIMRVAFGEIILLLEEEGLLTDEVEEKLDEIEEEVVATILANPDLTDEELAELVKKAEEELFKALEESY"}, "B14": {"name": "GBRAP_184_5361 (protein)", "chain": "EIKHLFLEAETKEEVEKKLKEAREKIKKEGKPTVLYLELKNADLETVETAARLLKELKEEGLIEDAIIDVLDEKDEEEADKFIEVADKYGVRLVIALKDE"}, "B15": {"name": "GBRAP_74_6560 (protein)", "chain": "SEEKIKEIKEVAKTKSIKEFAEYILENIDELDEEALLVAAKEMLKKVKEEKDTLTEEELEAVAEAAAALADKAFTEDSSRETLKAMNELIAAVVELEKKA"}, "B16": {"name": "GBRAP_160_4628 (protein)", "chain": "SEKLEKALKLIDEAAEFVKSMIPEVTTEQFAHGFEAEFGSVILYLEEEGLISEETADKMMEVVDETRAYLLANPDLTDEERRALVDEARKKMKEIVKEDY"}, "B17": {"name": "GBRAP_160_4206 (protein)", "chain": "SEKIEKIIKDLREETEEVIELIPEESVEEVANAADVEIGSVLLEAEELGEENEEILDTIDKARDEIVKILLENKDASPEELAKKMREVTEKAIEEIKKIA"}, "B18": {"name": "GBRAP_150_3910 (protein)", "chain": "DLETLLTIVDTAIDLLEAILDGEYSLLPHALKVLKIAVEEAKEEEKELLELAKKALEKVEKAEKLLKEGGKKEEIDKEIKEALELAEKLRKLIEKKIKEK"}, "B19": {"name": "GBRAP_35_5567 (protein)", "chain": "SFDETTAEMMVNTIEALTEAVEDIDPETLKTITEQITKAAKKVIEEIKDNKEALEKIKKALEKLLKALEKRGLDDPNVKAAAEAVKEAIKEAEKAIKEAE"}, "B20": {"name": "GBRAP_11_2614 (protein)", "chain": "KKKALEEAAKLAKELAEVVKKLIEEGVDNEELLKEAEKLLKELEKLVKEKLDKAHQTDVEVMKELWKKMKEDPENAEEYAKQLLAAAEVLEGNYLLDIEE"}, "B21": {"name": "GBRAP_128_3254 (protein)", "chain": "MNPEVEKYAIEAVEKIKNSNKEEAQKIADEFFEWLKESSLEDAEQAVEVVEKRLKELSAEKLDILADAARKHLSKFSPEKANLVAGLEVEALNEAEEKEE"}, "B22": {"name": "GBRAP_160_4157 (protein)", "chain": "SEEVEKLKKEINEIFEEMKEDIKGETIEQRRVIIAGYMGEIIMLLFESPVVSEEVVDLAVELEDELVETLKENPELTYEEIVKLIDEVKEKILEAIKKSA"}, "B23": {"name": "GBRAP_150_3907 (protein)", "chain": "DLETALTIAETLIDILEAILEGEFELLPHAVKLAEALLEEAKEISEEIEKLARELLELLKKAEKLLKEGGPKEEIKKLVKEALELARKIEKLLEEKIKEE"}, "B24": {"name": "GBRAP_11_2712 (protein)", "chain": "NKEKLEEFAKKAEELAKKIEKLIKEGPKEEELKKLAEEAKKLAEEAKAAGLPQSIVDLLKLTAELLKEAIKDPENVVKYLKEAAAAARVAAGQLLLEAEE"}, "B25": {"name": "GBRAP_184_5365 (protein)", "chain": "EVEVRAVDASTEEEVEEKLKEAREEIKASGKPTTLVLFLENADLETVEKGMELLKELKDEGLIERAIVVLDDERTEEEVDKLVELADKYGVDLVVALEDE"}, "B26": {"name": "GBRAP_52_6287 (protein)", "chain": "SEEEVERTAREILELIRAGDLEGALALAREFVEKASLEEVLRLGELLIERSAELPPERLDAAFEVIDAIAEGIEERFGKEEEADILLARAAAAIHAALQA"}, "B27": {"name": "GBRAP_160_4127 (protein)", "chain": "NEEALKTLKDNAADLEATLKEIETLTPAQAATLATVTLYQAALDMDELDGKFKELEDAAVAAADDIRATAATDPAATKAVSKEKLTAAAKAFKDAAKKLE"}, "B28": {"name": "GBRAP_52_6007 (protein)", "chain": "MREEIRKVLEEALELVKEGKEEEAKKLLLELVKSLNEEELELLVEELAELAAEAPLEDADAVWKLAELLAEALEEAGADEALADEALARAAAALYAREQA"}, "B29": {"name": "GBRAP_128_3463 (protein)", "chain": "STEEAVAWARETLERIKEADLAEARALFEELAARLATLSLEEVEAVVEEIEKELPKLTAEKLEILAEVLAAARPRFDPEKRALVAEVESEALLLAEEKEE"}},
  "note": "The full ranking holds about 4,500 sequences; the median of “median log2 fold change of GCK-ALFA target abundance (FLAG IP / Myc IP barcode read proportion)” is about 0.078, and the lowest 2% start at about -0.6. This is one part of the list.",
  "data": [
    {"molecular_target": "GABARAP, O95166", "sequence (O95166 whole entry, the tested form may be a part)": "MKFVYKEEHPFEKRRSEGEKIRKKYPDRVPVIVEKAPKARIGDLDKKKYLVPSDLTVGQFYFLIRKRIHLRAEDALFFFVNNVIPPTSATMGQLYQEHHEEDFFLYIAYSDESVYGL", "experiment": "median log2 fold change of GCK-ALFA target abundance (FLAG IP / Myc IP barcode read proportion) (log2 ratio); each designed protein is fused to an ALFA-tag nanobody in HEK293 cells to bring the named protein to FLAG-tagged glucokinase (GCK); Myc marks an untargeted standard; higher = target protein stabilised (more abundant)", "details": "target protein: 3xFLAG-MCP-GCK-ALFA reporter; HEK293 landing pad (RPLP)", "summary_of_the_method": "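Binders fused to an ALFA nanobody were recombined as a library into HEK293 landing-pad cells, which were induced with 2 μg mL^−1 doxycycline and then transfected to express a FLAG-tagged target and a Myc-tagged standard. After 48 h, circular RNA barcodes recovered by anti-FLAG and anti-Myc immunoprecipitation of lysates were reverse transcribed, amplified and sequenced. Each binder's target abundance is the median log2 ratio of FLAG to Myc barcode read proportions, from barcodes present at ≥10^−7 in both replicates, binders carrying ≥3 barcodes per replicate, a 10^−6 pseudocount and pooled replicates.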", "values": [
      {"binder": "B1", "median log2 fold change": 0.22},
      {"binder": "B2", "median log2 fold change": 0.039},
      {"binder": "B3", "median log2 fold change": 0.197},
      {"binder": "B4", "median log2 fold change": -0.132},
      {"binder": "B5", "median log2 fold change": -0.171},
      {"binder": "B6", "median log2 fold change": -0.112},
      {"binder": "B7", "median log2 fold change": -0.148},
      {"binder": "B8", "median log2 fold change": -0.117},
      {"binder": "B9", "median log2 fold change": 0.391},
      {"binder": "B10", "median log2 fold change": 0.00236},
      {"binder": "B11", "median log2 fold change": -0.472},
      {"binder": "B12", "median log2 fold change": 0.0165},
      {"binder": "B13", "median log2 fold change": -0.157},
      {"binder": "B14", "median log2 fold change": -0.0794},
      {"binder": "B15", "median log2 fold change": 0.0878},
      {"binder": "B16", "median log2 fold change": -0.0549},
      {"binder": "B17", "median log2 fold change": 0.0288},
      {"binder": "B18", "median log2 fold change": 0.0177},
      {"binder": "B19", "median log2 fold change": 0.378},
      {"binder": "B20", "median log2 fold change": 0.237},
      {"binder": "B21", "median log2 fold change": 0.604},
      {"binder": "B22", "median log2 fold change": 0.0459},
      {"binder": "B23", "median log2 fold change": 0.0415},
      {"binder": "B24", "median log2 fold change": 0.086},
      {"binder": "B25", "median log2 fold change": 0.163},
      {"binder": "B26", "median log2 fold change": -0.0575},
      {"binder": "B27", "median log2 fold change": 0.00207},
      {"binder": "B28", "median log2 fold change": -0.00404},
      {"binder": "B29", "median log2 fold change": 0.238}
    ]}
  ]
}
